Laboratory results from PubChem BioAssay (NCATS).
Where “and” joins values, the source holds several entries; their conditions need not be identical. Equal entries are not always repeated. Inconclusive means that the source gave no clear call. Such entries were picked first, then a sample of the others. Potencies beside an inconclusive call are fits to weak or partial responses and may not hold up. Calls of active or inactive are those of the source. Calls come from the whole dose curve; as a rule, active = well fitted curve in the direction sought with a large enough effect; inconclusive = small, poorly fitted or top-dose-only effect, or another doubt; inactive = no such curve, though single readings can be large; an effect the other way counts as inactive or inconclusive.
% is set by controls: 0 for no effect and ±100 for the full control effect; potency is the fitted concentration of half-maximal effect; tags give direction and shape of the fitted curve.
Note: nearly all actives have a fitted effect of over 70% in size.

Experiment: Primary qHTS for inhibitors of nuclear receptor binding SET domain protein 2 (NSD2) in an isogenic RCH-ACV NSD2 p.E1099K mutant (9B) (AID 1645876)
Settings: RCH-ACV NSD2 E1099K (9B) viability, CellTiter-Glo, 72 h; series mostly up to 44.9 µM; activity change, negative = viability loss: at the top concentration
With `Nc1nc2[nH]cc(CCc3ccc(C(=O)N[C@@H](CCC(=O)O)C(=O)O)cc3)c2c(=O)[nH]1` the Potency was active: 0.296 µM. With `C[C@]1(c2nc3c(C(N)=O)cccc3[nH]2)CCCN1` the Potency was inconclusive: 16.6 µM [inhibitor, partial curve, poor fit]. For `COCCNCCCn1c(C(=O)CF)c(-c2ccc(C)cc2)c2c(N)ncnc21`, the Potency was active: 18.6 µM. With `NC(=O)[C@@H](CCC(F)(F)F)N(Cc1ccc(-c2ncon2)cc1F)S(=O)(=O)c1ccc(Cl)cc1` the Potency was active: 23.5 µM. In the case of `S=c1nc[nH]c2nc[nH]c12`, the Potency is reported as active: 944 nM and active: 2.63 µM. With `CC[C@@H]([C@H](C)O)n1ncn(-c2ccc(N3CCN(c4ccc(OCC5CO[C@@](Cn6cncn6)(c6ccc(F)cc6F)C5)cc4)CC3)cc2)c1=O` (stereo not given in full) the “activity change, negative = viability loss” value was inactive: 2.1%. In the case of `CC(C)(C)c1nc(-c2cccc(NS(=O)(=O)c3c(F)cccc3F)c2F)c(-c2ccnc(N)n2)s1`, the Potency is reported as inconclusive: 16.3 µM [inhibitor, partial curve, poor fit]. In the case of `O=C(Nc1ccccc1Br)N[C@@H]1CCN(c2ccc(C(F)(F)F)cn2)C1`, the Potency is reported as inconclusive: 26.3 µM [inhibitor, single point]. For `Cc1cc(-c2ccc(CC(=O)Nc3ccc(-c4cccnc4)cc3)cc2)ccn1`, the Potency was inconclusive: 14.8 µM [inhibitor, partial curve]. In the case of `C=C(C)[C@@H]1CC[C@]2(C)CC[C@]3(C)[C@H](CC[C@@H]4[C@@]5(C)CC[C@H](O)C(C)(C)[C@H]5CC[C@]43C)[C@@H]12`, the “activity change, negative = viability loss” value is reported as inactive: 1.47%. With `CN1CCN2c3ncccc3Cc3ccccc3C2C1` (stereo not given) the “activity change, negative = viability loss” value was inactive: 3.71%. With `CCCNC(=O)Nc1ccc(Oc2ncnc3cc(OC)c(OC)cc23)cc1Cl` the Potency was inconclusive: 20.6 µM [inhibitor, single point].

Experiment: Primary qHTS for inhibitors of nuclear receptor binding SET domain protein 2 (NSD2) in an RCH-ACV wild type WT cells (2C) (AID 1645877)
Settings: RCH-ACV (leukaemia line) NSD2 WT (2C) viability, CellTiter-Glo, 72 h; series mostly up to 44.9 µM; activity change, negative = cell killing: at the top concentration
With `Cc1cc2c(cc1C1(c3ccc(C(=O)O)cn3)CC1)C(C)(C)CCC2(C)C` the “outcome” value was “inactive”. In the case of `Cc1ccc(C2=Nc3ccc(Cl)cc3OC2)cc1`, the Potency is reported as inconclusive: 5.9 µM [inhibitor, partial curve]. With `Cc1nc(Nc2n[nH]c3c2CN(C(=O)N[C@H](CN(C)C)c2ccccc2)C3(C)C)c2sccc2n1` the Potency was active: 16.3 nM and active: 11.8 nM. For `C[C@]1(c2nc3c(C(N)=O)cccc3[nH]2)CCCN1`, the Potency was inconclusive: 16.6 µM [inhibitor, partial curve]. In the case of `COCCNCCCn1c(C(=O)CF)c(-c2ccc(C)cc2)c2c(N)ncnc21`, the Potency is reported as active: 16.6 µM. In the case of `O=C(NC(Cc1cc(=O)[nH]c2ccccc12)C(=O)O)c1ccc(Cl)cc1` (stereo not given), the Potency is reported as “inactive”. In the case of `Cc1noc(-c2ccc(CSCCC(=O)O)cc2)c1NC(=O)OC(C)c1ccccc1Cl` (stereo not given), the Potency is reported as inconclusive: 9.34 µM [inhibitor, single point]. With `NC(=O)[C@@H](CCC(F)(F)F)N(Cc1ccc(-c2ncon2)cc1F)S(=O)(=O)c1ccc(Cl)cc1` the Potency was active: 23.5 µM. In the case of `COc1ncnc(NS(=O)(=O)c2ccc(N)cc2)c1OC`, the Potency is reported as “inactive”. With `C[C@H](NC(=O)Cc1cc(F)cc(F)c1)C(=O)N[C@H](C(=O)OC(C)(C)C)c1ccccc1` the “outcome” value was “inactive”. With `C[C@@H]1CCO[C@H]2Cn3cc(C(=O)NCc4ccc(F)cc4F)c(=O)c(O)c3C(=O)N12` the Potency was inconclusive: 29 µM [inhibitor, partial curve, poor fit]. For `CC[C@@H]([C@H](C)O)n1ncn(-c2ccc(N3CCN(c4ccc(OCC5CO[C@@](Cn6cncn6)(c6ccc(F)cc6F)C5)cc4)CC3)cc2)c1=O` (stereo not given in full), the “activity change, negative = cell killing” value was inactive: -3.33%. In the case of `N[C@@]1(C(=O)O)CS(=O)(=O)[C@H]2[C@H](C(=O)O)[C@H]21`, the “activity change, negative = cell killing” value is reported as inactive: 8.67%. With `NC[C@H]1O[C@H](O[C@@H]2[C@@H](O)[C@@H](O[C@H]3O[C@H](CO)[C@@H](O)[C@H](N)[C@@H]3O)[C@H](N)C[C@@H]2N)[C@H](O)[C@@H](O)[C@H]1O` the “activity change, negative = cell killing” value was inactive: 3.78%. With `CC(C)(C)c1nc(-c2cccc(NS(=O)(=O)c3c(F)cccc3F)c2F)c(-c2ccnc(N)n2)s1` the Potency was inconclusive: 23 µM [inhibitor, single point] and active: 4.68 µM. In the case of `CCOC(=O)C1=C(N)Oc2ccc(Br)cc2C1C(C#N)C(=O)OCC` (stereo not given), the Potency is reported as “inactive”. In the case of `CNC[C@H](O)c1cccc(O)c1`, the Potency is reported as “inactive”. With `O=C(Nc1ccccc1Br)N[C@@H]1CCN(c2ccc(C(F)(F)F)cn2)C1` the Potency was inconclusive: 26.3 µM [inhibitor, single point].
